# Measured values published in PubChem BioAssay AID463173 (ICCB-Longwood Screening Facility, Harvard Medical School, 2010).
# Out of some 52,000 compounds screened, about 1,700 (3.3%) were called active. No stated cut-off is given here; in the data, active means survival mostly below about 52% (no sharp cut-off); inactive means mostly above about 56%. The list shows a part of the results.
# System: Wild type
# Assay: growth inhibition of S. aureus wild type versus tarO mutant, primary screen, teichoic acid synthesis inhibitors, RN4220, OD600 (AID 463173)
# Settings: S. aureus RN4220 wild type/DeltatarO growth, OD600, 18 h, stronger effect = lower value, screened at 18.75 µg/mL (by protocol)
row,SMILES,survival
1,CCn1ccc2cc(S(=O)(=O)N3CCCN(C(=O)Nc4ccccc4F)CC3)ccc21,inactive: 78%
2,CCOc1ccc(-n2c(SCC(=O)Nc3cc(C)ccc3C)nc3c([nH]c4ccccc43)c2=O)cc1,inactive: 59%
3,CCC(C)n1c(=O)c2sccc2n2c(CCCC(=O)N3CCN(c4ccccc4)CC3)nnc12 (stereo not drawn),inactive: 97%
4,O=C(Cn1c(=O)n(Cc2nc(-c3ccccc3)no2)c(=O)c2cc3c(cc21)OCO3)Nc1ccccc1,inactive: 84%
5,O=C(Nc1cc(-c2ccccc2)sc1C(=O)O)c1cccc(F)c1,inactive: 80%
6,C/C(=N\NC(=O)c1ccco1)c1ccc(C)o1,inactive: 122%
7,COc1ccc(CNC(=O)c2sc3nc4n(c(=O)c3c2C)CCCC4)cc1,inactive: 86%
8,COc1cccc(Cc2nc3ccccc3nc2SCC(=O)Nc2cccc(C)c2)c1,inactive: 128%
9,Cc1ccc(Cn2cc(S(=O)(=O)c3cccc(C)c3)c(=O)c3cc(F)c(N4CCOCC4)cc32)cc1,inactive: 82%
10,O=C(Cc1ccccc1)Nc1sc2c(c1C(=O)Nc1ccccc1Cl)CCCCC2,inactive: 78%
11,COc1ccc2c(c1)CCc1c(C(=O)Nc3cc(OC)c(Cl)cc3OC)noc1-2,inactive: 129%
12,COC(=O)c1cc(Nc2nc3ccccc3nc2NS(=O)(=O)c2ccc(C)cc2)ccc1Cl,inactive: 47%
13,Cc1cc(C)n(-c2nc(N(c3ccccc3)c3ccccc3)nc(-n3nc(C)cc3C)n2)n1,inactive: 105%
14,CC(C)c1ccc(NC(=O)CSC2=Nc3ccccc3C3=NC(CCC(=O)NC4CCCCC4)C(=O)N23)cc1 (stereo not drawn),inactive: 78%
15,Cc1cccc(Nc2ncnc3onc(-c4ccc(Cl)cc4)c23)c1C,inactive: 121%
16,Cc1cc(F)ccc1NC(=O)C(c1ccccc1)N1Cc2ccccc2C1=O (stereo not drawn),inactive: 87%
17,COC(=O)c1ccc([C@@H]2Nc3c(OC)ccc(C)c3[C@@H]3C=CC[C@@H]32)cc1,inactive: 77%
18,Nc1c(C(=O)Nc2ccc(F)cc2)sc2nc(-c3cccs3)cc(C(F)(F)F)c12,inactive: 69%
19,COc1ccc(C(=O)Nc2cccc(C(=O)OCc3cc(=O)n4nc(C5CC5)sc4n3)c2)cc1,inactive: 111%
20,Cc1ccc2oc3c(c(=O)c2c1)C(c1ccc(O)cc1)N(CCCN(C)C)C3=O (stereo not drawn),inactive: 144%
21,Cc1ccc(-n2c(=O)c3cccnc3n2CC(=O)NCc2ccc(Cl)cc2)cc1,inactive: 69%
22,CC1N=C2c3ccccc3N=C(SCC(=O)NCCc3ccc(Cl)cc3)N2C1=O (stereo not drawn),inactive: 69%

row,SMILES,survival
1,CCn1c2ccccc2c2cc(CN3CCN(Cc4ccc(Br)cc4)CC3)ccc21,active: 3%
2,Cc1ccccc1NC(=O)CSc1nccc(=O)[nH]1,inactive: 96%
3,O=C(CCS(=O)(=O)c1cc2c(cc1Cl)NC(=O)CO2)NCc1ccc(Cl)cc1,inactive: 88%
4,O=c1cc(-c2ccccc2)c2ccc3c(c2o1)CN(Cc1cccc(Cl)c1)CO3,inactive: 66%
5,COc1ccc2[nH]cc(CCN=C(NC(=O)c3ccccc3F)Nc3nc(C)cc(C)n3)c2c1,inactive: 96%
6,CCOc1ccc(CC(=O)Nc2cccc(-c3nc4cccnc4s3)c2C)cc1,inactive: 95%
7,Cc1ccccc1NC(=O)Cn1c(=O)n(CCCC(=O)NCc2ccc3c(c2)OCO3)c(=O)c2ccccc21,inactive: 91%
8,NCCSC1CC(=O)N(c2ccc(Cl)cc2)C1=O (stereo not drawn),inactive: 105%
9,C=C(C)CSc1nc2sc3c(c2c(=O)n1Cc1ccccc1)CC(C)(CC)OC3 (stereo not drawn),inactive: 39%
10,Cc1c(C(=O)Nc2ccccc2Br)oc2ccc(S(=O)(=O)N3CCCCCC3)cc12,inactive: 83%
11,Cc1ccc(-c2cn3cccnc3n2)cc1NC(=O)C(C)(C)Oc1ccc(Cl)cc1,inactive: 80%
12,COc1ccc(Cl)cc1NC(=O)c1c(NCc2ccc(C)o2)sc2c1CCC(C)C2 (stereo not drawn),inactive: 71%
13,COc1cccc(NCc2cccn2-c2nnc(N3CCC(C)CC3)s2)c1,inactive: 131%
14,CCC(C)NC(=O)CN1C(=O)c2cccnc2Sc2ccccc21 (stereo not drawn),inactive: 112%
15,COc1ccc(NC(=O)C2CCC(CNS(=O)(=O)c3cccc4nsnc34)CC2)cc1OC (stereo not drawn),inactive: 87%
16,CCCOC(=O)c1cccc(Nc2nc(CCC)cc(=O)[nH]2)c1,inactive: 63%
17,Cc1ccc(CN2C(=O)C(O)(c3c(C)[nH]c4ccccc34)c3ccccc32)cc1 (stereo not drawn),inactive: 101%
18,COC(=O)c1cc2oc(C)cc2n1Cc1ccccc1Cl,active: -2%
19,Cc1nc2cc(-c3ccccc3)nn2c(C)c1CCC(=O)N1CCN(c2ccc(F)cc2)CC1,inactive: 59%
20,COCCNC(=O)CCCn1c(SCC(=O)Nc2ccc(F)cc2)nc2c(sc3ccccc32)c1=O,inactive: 103%
21,CCOC(=O)Cn1c(=N)n(Cc2ccc(C(C)(C)C)cc2)c2ccccc21,inactive: 95%
22,COc1ccc(C(=O)n2nc(N)c3cc4ccc(C)cc4nc32)cc1OC,inactive: 92%

row,SMILES,survival
1,CC1CCN(C(=O)c2c(NC(=O)c3ccccc3Cl)sc3c2CCC(C(C)(C)C)C3)CC1 (stereo not drawn),active: 2%
2,COc1ccccc1C1NC(=O)c2n[nH]c(-c3cccs3)c21 (stereo not drawn),inactive: 70%
3,Cc1cc(C)cc(-n2ccnc2SCC(=O)Nc2cccc3ccccc23)c1,inactive: 73%
4,COc1cc(C2CC(=O)N(Cc3cccc(F)c3)c3ccccc3S2)cc(OC)c1OC (stereo not drawn),inactive: 83%
5,Cc1cc2nc(-c3ccc(OCc4ccccc4C)cc3)cc(C(F)(F)F)n2n1,inactive: 27%
6,COc1ccc(N2C(=O)NC(NS(=O)(=O)c3ccc(Cl)cc3)(C(F)(F)F)C2=O)cc1 (stereo not drawn),inactive: 151%
7,Cc1ccccc1-c1nc(CN2CCCC(C(=O)NCc3ccc(Cl)cc3)C2)c(C)o1 (stereo not drawn),inactive: 68%
8,CNC(=O)C1CCC(Cn2c(=O)c3sccc3n(Cc3cc(C)ccc3C)c2=O)CC1 (stereo not drawn),inactive: 60%
9,COc1ccc([N+](=O)[O-])cc1NC(c1nnc(-c2ccccc2)o1)c1ccccc1F (stereo not drawn),inactive: 84%
10,CCc1ccc(S(=O)(=O)c2cn(CC(=O)Nc3ccc(F)c(Cl)c3)c3ccccc3c2=O)cc1,inactive: 56%
11,CCN(C(=O)Cn1c(C(=O)OC)cc2sc(Cl)cc21)c1cccc(C)c1,inactive: 92%
12,COc1ccc(C2C(=O)N(C3CCCCC3)CC(=O)N2CCc2ccc(C)cc2)cc1OC (stereo not drawn),inactive: 82%
13,CSc1nc(NCCOC(C)=O)c(C#N)c(-c2ccc(C(C)(C)C)cc2)n1,inactive: 88%
14,Cc1ccc2nc(CN3CCN(C(=O)Nc4ccc(F)cc4)CC3)oc2c1,inactive: 87%
15,O=C(COc1ccccc1F)Nc1ccc2nc(SCC(=O)N3CCc4ccccc43)sc2c1,inactive: 82%
16,O=S(=O)(c1ccc2ccccc2c1)N1CCCCCC1,inactive: 112%
17,N/C(=N\OC(=O)c1ccccc1)c1cccnc1,inactive: 109%
18,COc1ccc(NC(=O)CCc2c(C)nc3c(c2C)c(=O)n(C)c(=O)n3C)c(OC)c1,inactive: 76%
19,CCc1ccccc1NC(=O)Cn1nc2c3cc(F)ccc3n(Cc3cccc(C)c3)cc-2c1=O,inactive: 71%
20,CCOC(=O)c1c(NC(=O)c2cc(-c3ccccc3OC)on2)sc(C)c1C,inactive: 86%
21,Cc1cc(NC(=O)C2CCN(S(=O)(=O)c3c(C)noc3C)CC2)ccc1Br,inactive: 80%
22,Cc1cc(C)c2nc(N(Cc3cccnc3)C(=O)CCS(=O)(=O)c3ccccc3)sc2c1,inactive: 59%

row,SMILES,survival
1,CC1=C(C(=O)Nc2cccnc2)C(c2ccc(F)cc2)n2nc(-c3cccc(C)c3)nc2N1 (stereo not drawn),inactive: 63%
2,COc1ccc(Nc2nc(C(=O)NCc3ccco3)cs2)cc1,inactive: 127%
3,CCOc1ccc(-c2cn3c(n2)sc2cc(C(=O)NCCCN4CCCCCC4)ccc23)cc1,active: -1%
4,CCc1ccc2oc(C(=O)NCC(c3ccc(OC)cc3)N3CCCCC3)c(C)c2c1 (stereo not drawn),inactive: 87%
5,COC1(OC)c2nonc2C(OC)(OC)c2nonc21,inactive: 116%
6,NC(=O)CSc1nnc(-c2ccc(S(=O)(=O)N3CCCC3)cc2)o1,inactive: 108%
7,COc1ccccc1C(=O)Nc1ccc(NC(=O)c2ccccc2)nc1,inactive: 101%
8,COc1ccc(-c2nc3nc(C)cc(C)n3c2Nc2c(C)cccc2C)cc1,inactive: 60%
9,CCc1c(C)nc(SCC(=O)Nc2ccc3c(c2)OCCO3)[nH]c1=O,inactive: 117%
10,COc1ccccc1CNC(=O)C1(c2cccs2)CCOCC1,inactive: 70%
11,N#Cc1c[nH]n2c(NC3CCCCC3)c(-c3ccc(F)cc3)nc12,inactive: 77%
12,CCc1ccc(OCC(=O)Nc2ccc3c(c2)c2ccccc2n3CC)cc1,inactive: 69%
13,Cc1cccc(-n2ccnc2SCC(=O)Nc2cccc3ccccc23)c1,inactive: 80%
14,CCc1ccc2[nH]cc(S(=O)(=O)c3ccc(C(C)C)cc3)c(=O)c2c1,inactive: 72%
15,Cc1cc(C)cc(OCCSc2nc3ccc(NC(=O)c4ccc5c(c4)OCO5)cc3s2)c1,inactive: 82%
16,O=C(COc1ccccc1Cl)Nc1ccc(OCc2cc(=O)n3ccsc3n2)cc1,inactive: 95%
17,Oc1ccccc1-c1nc(-c2cccs2)c(-c2cccs2)[nH]1,active: -11%
18,COC(=O)c1ccccc1NC(=O)Cn1cnc2sc(C)c(S(=O)(=O)N3CCC(C)CC3)c2c1=O,inactive: 73%
19,O=C(O)c1cccc(N(CCO)CCO)c1,inactive: 115%
20,CCOc1ccc(C2C(=O)N(C3CCCCCC3)CC(=O)N2Cc2ccccc2)cc1OC (stereo not drawn),inactive: 75%
21,COc1ccc(NC(=O)/C=C\C(=O)N(c2ccc(C(C)C)cc2)C(C(=O)NCc2ccco2)c2ccc(C)cc2)cc1 (stereo not drawn),inactive: 76%
22,Cc1nc2ccccn2c(=O)c1NC(=O)c1cccc(F)c1,inactive: 73%
